In the supplement of paper PMC3334620:
Over roughly 33,000 sequences, “E-score (-0.5 to 0.5)” has its median near -0.016; the highest 2% begin near 0.31. Some of the results follow.

The sequences below were run against Cst6 (UniProt P40535) (assay: PBM E-score (8-mer binding enrichment) (E-score (-0.5 to 0.5)); higher = stronger / more preferred TF binding; most listed sequences are background and not binding sites). Conditions: protein concentration: 200 nM; construct: GST-DNA-binding domain.
Summary of the method: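 Each ungapped eight-base word and its reverse complement, pooled, received an E-score from the Universal PBM Analysis Suite. Underlying scans, normalised with masliner, recorded fluorescent anti-GST bound to GST-tagged yeast transcription factors. These were applied at about 100-200 nM to universal all-10-mer Agilent arrays double-stranded by primer extension.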

Sequence	PBM E-score
CTAGGTGA	-0.126
AACCATGG	-0.128
AGCCACGG	-0.178
ATGGTAAT	0.182
AGATCGTA	-0.23
CGTACCAG	-0.0409
AGCCGTCA	0.201
TTGGACAA	0.0139
ATGTACAT	0.216
ATCTTTGG	-0.0128
GATCCTAA	-0.161
CCAGAGGG	-0.221
CTCAACAA	0.231
ATTCGAGG	-0.108
CTTGGTAA	-0.0484
CGGTTGGC	-0.0665
GGCAGAAC	-0.0718
GAATCGTC	0.0373
ATATTACA	0.248
AATATAAA	0.331
AGTCTAGC	-0.349
GACATCCC	-0.0212
AGGAACGA	-0.1
CCGACTGC	-0.22
ACTCAGCT	-0.08

Sequence	PBM E-score
ATCTGCAA	0.0182
ACTCTCGC	-0.204
ACTGCGGA	-0.126
ACCGCGCT	-0.0955
GATCGGGC	-0.226
ACTTTTAA	0.155
CCACGAGC	-0.264
AGTTTCCC	-0.22
CGCGAAGA	-0.097
AGATATGG	0.0318
AAAGCCAA	0.089
CCTGTAAA	-0.183
CCCTGAAA	0.0354
AGAGAGAT	0.0939
CCGCTTCA	-0.149
ATGGGTTA	0.0761
GGCCCGAA	-0.15
AGACCCAC	-0.103
ATTTTAGA	0.0483
GGTCCAAA	-0.0637
CAGACTTC	-0.284
GCAGACAA	-0.0336
AGCACGCC	-0.0736
AGGAGGTA	-0.187
CTGTGATA	0.0843

Sequence	PBM E-score
ATCCGAAT	0.145
ATAGACTG	-0.0127
CGAAACTC	-0.137
CCGGAACG	-0.15
AAGGATCT	-0.151
AGCAGGAA	-0.15
GCAAGAGA	-0.13
GCTCGTAC	-0.142
GGCGGTTA	-0.156
ACCGATTC	-0.16
GAATCATC	0.118
CATCTGAA	0.037
AGTCAGGC	-0.0425
CGTCGTCA	0.258
TCGAACCA	-0.0349
ACGCGCGC	0.175
AAACCCCA	-0.158
CTATCAGA	-0.0869
CTGTGGTC	-0.215
AGCATTAA	0.083
ACGACCAG	0.0245
TGTATTAA	0.237
ACCTCTAA	-0.0311
AGGCTGGG	-0.259
CGATATTC	-0.0716

Sequence	PBM E-score
AATACATG	0.0527
AGATATAC	0.053
AATGGAGG	-0.164
ACAGGAGG	-0.31
GCGACGGA	-0.224
ATAGAGCC	0.101
AAGGACAG	-0.107
GTTAGGTA	0.137
ATATCGTA	0.172
CTGCGAAC	-0.0611
GTCTTCCA	-0.228
ACATAATG	0.266
ATAATTAC	0.349
ACGATAAT	0.24
ATCCGCAG	0.0287
CGCTATAG	-0.101
GCACGTAA	0.232
ACAACTAC	-0.0522
GTAGTAAA	0.0555
GTCTTCAC	-0.124
GGGGCCTA	-0.383
CTATCAAG	-0.0952
ACCGGCTA	-0.144
GCTTGACC	-0.262
GGAAGCGA	0.0849

Sequence	PBM E-score
AAGGATAA	0.0603
AAAGGAGA	-0.156
AGAAACGC	-0.0132
ATGTCCGG	-0.0972
AAAGACTC	-0.172
ATATTAGA	0.253
GTGTTAAA	0.0585
CCATGCCG	0.152
GGCAGGTA	-0.232
CCAAGGTA	-0.253
CGAGTGAA	0.0464
GAAATGTA	0.11
CGTCTGCA	-0.0743
CGCTCAGC	-0.0498
CAGATACG	0.0888
AAACGCCT	0.0465
AGATATGA	0.176
CCACGTCA	0.472
GATCGTGA	0.0378
AGATGTTA	-0.00774
TGAATTCA	0.276
AAAAAGTT	0.14
GGACATCA	0.188
AGCAAATC	0.0424
GGAGAGGA	-0.417

Sequence	PBM E-score
AGGGTCAC	-0.263
CCAATCCG	-0.0831
GAGGGTTA	-0.139
TAAATGTA	0.148
CCCCGCAC	-0.105
AATGTAAC	0.0559
AAATCTCA	0.00253
TGACCGCA	0.271
CAGAATAC	-0.0294
CTCGAAGA	-0.0456
ATCTAGAC	-0.0539
GTCTGAGA	-0.0731
GACTTCCA	-0.273
CATCTCAA	0.168
CGCCCATA	-0.19
TAGTCAGA	-0.0527
GCCGTGTA	0.195
ATTGATAC	0.154
CACATAAA	0.206
GGTGTGAC	0.00955
CAACACTC	-0.00612
CATTCTCG	0.00146
CCATGGGC	-0.288
GCCGACCC	-0.303
ACTGTTGC	0.0739

Sequence	PBM E-score
GAGTCAAA	-0.106
AGCTAAGA	-0.0868
ACGTCATC	0.497
CCTACCTA	-0.213
AAAGCCGA	-0.204
CAGAGCCC	-0.177
CCGTGGGA	-0.0731
CATGATCC	-0.064
GCGCCGAA	0.132
ACCCAGCC	-0.362
GGCGGTCA	-0.171
TAGTTAAA	0.254
GAGGGTCC	-0.376
AACTCATG	0.148
AATTGCAG	0.0976
ACGGCACG	0.348
CGTATGTA	0.219
TACTCACA	0.123
CGAGCGAA	0.0641
CGTCGTAG	0.0343
TTGCCCAA	-0.161
GTCGAGAC	0.0529
CCTTGACC	-0.19
GGCGAGAA	0.0353
AGTCCGTG	-0.33

Sequence	PBM E-score
CTGAACTA	-0.134
AAACAGCA	0.0579
AACAAAGA	0.11
CTGGAGTA	-0.0677
CTGTGCGA	-0.0249
AAAGCGCG	-0.0309
CTAGACCC	-0.175
ATTTCCGA	0.0253
TGTTTCAA	0.246
GCAATATA	0.029
AAGTCTGC	-0.226
AAGCACAC	-0.12
ATCCCGGC	-0.108
CTATCGGA	-0.0998
CAGGCTGG	-0.201
CTAATCCC	0.0666
CGATCTAG	-0.172
ACTCCGAT	-0.197
ATGGGCTC	-0.167
AGACCTTG	-0.142
AAACCTCC	-0.255
AGTTCTGC	7e-05
ACTAATAA	0.234
CGCGTACG	0.269
AGACTTCG	-0.196

Sequence	PBM E-score
ACGCCTAA	0.0448
ACCCCCAA	-0.26
CGTGAGTC	-0.186
GCTACGGA	-0.163
CAACACGC	-0.2
CGCCCATC	-0.245
CCAATAAC	0.135
CTTACTGC	0.166
ACCGCGAA	-0.0784
GCGACGTA	0.219
CATACCCC	-0.136
GTTATCAA	0.0407
ACCGGCTG	-0.212
CAAGCTTC	-0.0873
ACGGAACA	-0.0248
CGACACGC	0.0217
ATCGATCG	0.197
ATGATGGA	0.192
AATAGCTC	-0.0576
